Experimental data taken from PubChem BioAssay AID360 (National Center for Advancing Translational Sciences (NCATS), 2006).
Hit rate of the full screen: of about 48,000 compounds, about 550 (1.1%) were called active. About 4% were inconclusive and are not listed. No stated cut-off is given here; in the data, active means potency below about 15 µM; inconclusive means mostly about 16 µM to 33 µM; inactive means weaker than that. Some of the results follow.

Target: Lysosomal acid glucosylceramidase (Homo sapiens) (UniProt P04062)
Assay: Glucocerebrosidase;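 further: the screen sought inhibitors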
Conditions: purified enzyme, resorufin glucoside fluorescence (screen aimed at inhibitors), 20 min
In short: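 Compounds titrated against 0.2 nM normal enzyme, 30 uM resorufin beta-D-glucopyranoside substrate, citrate/phosphate buffer with taurocholate and tween-20, pH 5.9. Reaction ran 20 min at room temperature; fluorescence (Ex 548/Em 600) gave AC50.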
Potency means the concentration at half of the fitted maximal effect.

Sequence of UniProt P04062 (P04062 whole entry, looked up): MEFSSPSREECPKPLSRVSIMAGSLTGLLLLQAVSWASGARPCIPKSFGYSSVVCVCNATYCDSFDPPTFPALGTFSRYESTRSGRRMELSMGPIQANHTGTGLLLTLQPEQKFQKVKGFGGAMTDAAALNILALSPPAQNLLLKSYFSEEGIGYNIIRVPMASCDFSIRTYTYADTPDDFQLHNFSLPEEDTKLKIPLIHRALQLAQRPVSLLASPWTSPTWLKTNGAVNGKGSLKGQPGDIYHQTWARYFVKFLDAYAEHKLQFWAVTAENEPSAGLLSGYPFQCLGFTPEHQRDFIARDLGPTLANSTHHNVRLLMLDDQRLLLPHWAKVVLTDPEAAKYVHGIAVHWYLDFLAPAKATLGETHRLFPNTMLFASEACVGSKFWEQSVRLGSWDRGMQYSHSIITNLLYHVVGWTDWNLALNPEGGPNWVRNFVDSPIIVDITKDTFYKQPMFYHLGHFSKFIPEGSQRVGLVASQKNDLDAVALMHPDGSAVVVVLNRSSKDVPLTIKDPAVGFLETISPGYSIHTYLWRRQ

Potency, inactive:
Cc1cc(C)nc(Sc2ccc3nnc(C(F)(F)C(F)(F)C(F)(F)F)n3n2)n1 > 76.9 µM, COc1ccc(Cc2nnc(SCc3c(C)noc3C)n2C2CCCCC2)cc1OC > 76.9 µM, Cc1ccc(NC(=O)COC(=O)C2CC2C)c(S(=O)(=O)N2CCCCC2)c1 (centres undefined) > 76.9 µM, c1ccc(CSc2nnc(-c3cccs3)n2Cc2ccco2)cc1 > 76.9 µM, CC1Cc2ccccc2N1S(=O)(=O)c1cccc(C(=O)OCC(=O)NC2CCS(=O)(=O)C2)c1 (centres undefined), O=C(O)c1cccc(N2C(=O)CCC2=O)c1 > 76.9 µM, COc1ccc(Nc2nc(N)nc(CN3CCOCC3)n2)cc1 > 76.9 µM, Cc1noc(NS(=O)(=O)c2ccc(NC(=O)CSc3n[nH]c(-c4ccccc4)n3)cc2)c1C > 76.9 µM, Cc1ccc(C)c(-n2c(SCC(N)=O)nnc2-c2ccccn2)c1 > 76.9 µM, Cc1ccc(Nc2cc(C)nc3nnnn23)cc1 > 76.9 µM, CCCCOC(=O)Nc1ccc(OC)cc1S(=O)(=O)N1CCOCC1 > 76.9 µM, CCOC(=O)c1[nH]c(C)c(C(=O)Nc2ccccc2F)c1C > 76.9 µM, CC1CCc2nc(NC(=O)CN3CCOCC3)sc2C1 (centres undefined) > 76.9 µM, Cn1c(=O)c2c(nc(N3CCCCCC3)n2CC(O)COc2ccccc2)n(C)c1=O (centres undefined) > 76.9 µM, COc1ccc(NC(=O)CSc2nc3ccccc3c(=O)n2CCNC(C)=O)c(OC)c1 > 76.9 µM, O=c1cc(COn2nnc3ccc(C(F)(F)F)cc32)nc2sccn12 > 76.9 µM, CCOC(=O)c1cccc(NC(=O)CCc2c(C)nc3ncnn3c2C)c1 > 76.9 µM, CN1CCNC(=O)C1CC(=O)O (centres undefined) > 76.9 µM, COc1ccc(CSc2nnc(C)n2N)cc1 > 76.9 µM, CC12C(=O)N(CCC(=O)O)C(=O)C1C1C=CC2C1 (centres undefined) > 76.9 µM, COc1cc(OC)c(C2C(C(=O)N3CCOCC3)=C(C)NC3=C2C(=O)CC(C)(C)C3)cc1OC (centres undefined) > 76.9 µM, CCOC(=O)N1CCN(S(=O)(=O)c2cc(Br)cc3c2N(C(=O)CC)CC3)CC1 > 76.9 µM, CCN(CC)CCCN(Cc1cc2cc3c(cc2[nH]c1=O)OCO3)C(=O)Nc1ccccc1OC > 76.9 µM, CC1(C)CC(=O)C(CC2=C(O)CC(C)(C)CC2=O)=C(O)C1 > 76.9 µM, COc1ccc(CN2CC(C(=O)NCCCN3CCN(Cc4ccccc4)CC3)CC2=O)cc1 (centres undefined) > 76.9 µM, O=C(c1cccc(S(=O)(=O)N2CCCCC2)c1)N1CCCCC1 > 76.9 µM, COc1ccc(CCNC(=O)CSc2nc(C)nc3c2oc2ccccc23)cc1OC > 76.9 µM, CC(=O)c1oc2ccccc2c1N > 76.9 µM, CCC(=O)c1ccc(OCC(O)CN(C)C2CCCCC2)cc1 (centres undefined) > 76.9 µM, O=C(Nc1ccccc1C(=O)O)c1cccc(NC(=O)c2ccc(Br)o2)c1 > 76.9 µM, Cc1noc(NS(=O)(=O)c2ccc(N3C(=O)c4ccccc4C3=O)cc2)c1C > 76.9 µM, Cc1cccc(N(CC(=O)NC2CCCCC2)C(=O)CCC(=O)Nc2cc(C)ccn2)c1 > 76.9 µM, Cc1nc(NC(=O)CSc2nc3cccnc3n2Cc2ccccc2)sc1C > 76.9 µM, COc1ccc(S(=O)(=O)NC(CC(=O)N2CCc3ccccc32)c2ccco2)cc1 (centres undefined) > 76.9 µM, COc1ccc(O)c(C(=O)c2cc(C#N)c(=O)n(CCN3CCOCC3)c2)c1 > 76.9 µM, COc1ccc(C(c2nnnn2C2CCCCC2)N2CCN(c3ccccc3F)CC2)cc1 (centres undefined), O=C(COC(=O)C1=COCCO1)Nc1ccccc1Oc1ccccc1 > 76.9 µM, CCOC(=O)c1ccc(NC(=O)CSc2nnc(-c3cccs3)n2CC)cc1 > 76.9 µM, CCCNC(=O)C1CCN(S(=O)(=O)c2ccc(Br)cc2)CC1 > 76.9 µM, CCOC(=O)Cn1c2c(c(-c3ccccc3OC)cc1=O)CCCC2 > 76.9 µM, CCOc1ccc(N2C(=O)CC(Sc3ncccn3)C2=O)cc1 (centres undefined) > 76.9 µM, N=c1n(CCN2CCOCC2)c2ccccc2n1CC(O)COc1ccccc1 (centres undefined), Cc1cccc(OCC(=O)Nc2ccc(N3CCN(S(C)(=O)=O)CC3)cc2)c1 > 76.9 µM, CC(=O)Nc1ccc(S(=O)(=O)NCCNC(=O)c2ccccc2F)cc1 > 76.9 µM, CCOc1ccc(-c2nnc(-c3cccs3)o2)cc1OCC > 76.9 µM, COc1ccccc1-n1cnc(N)c1C(=O)c1ccccc1 > 76.9 µM, [O-][n+]1onc2c1CCc1c-2nn(-c2ccccc2Cl)[n+]1[O-] > 76.9 µM, Cc1cc(Br)ccc1OCc1nc(-c2cccnc2)no1 > 76.9 µM, CCOC(=O)c1c(C)c(C(=O)NCc2cccnc2)c(C)n1CC > 76.9 µM, CC(=O)NC(Cc1ccc(C)cc1)C(=O)NC1CCN(C(=O)c2cnccn2)CC1 (centres undefined) > 76.9 µM, CCN1CCN(C(c2cc(OC)c(OC)c(OC)c2)c2nnnn2C(C)C)CC1 (centres undefined) > 76.9 µM, CN(C1=NC(=O)C(CC(=O)Nc2ccc(Br)cc2)S1)c1ccc(O)cc1 (centres undefined), CC(=O)N1CCN(CCN=CC2=C(O)CC(C)(C)CC2=O)CC1 > 76.9 µM, CCOC(=O)CSc1nnc(NC(=O)c2cccc(S(=O)(=O)N3CCCCC3)c2)s1 > 76.9 µM, CCn1c(CNC(=O)c2ccc(OC)cc2)nnc1SCC(=O)c1ccccc1 > 76.9 µM, O=C(O)CCC(=O)Nc1nnc(C(F)(F)F)s1 > 76.9 µM, Cc1ccc(-n2ncc3c(=O)n(CC(=O)NCC4CCCO4)cnc32)cc1 (centres undefined) > 76.9 µM, CC1(C)CC(=O)C(/C=N/c2ncccc2C(=O)O)=C(O)C1 > 76.9 µM, O=C(CN1C(=O)NC2(CCCCCCC2)C1=O)NC(=O)NCc1ccco1 > 76.9 µM, CCOC(=O)N1CCN(c2c(NCCCN(CC)c3cccc(C)c3)c(=O)c2=O)CC1 > 76.9 µM, NC1=NC(=O)CC(C(=O)NCc2ccccc2)S1 (centres undefined) > 76.9 µM, CC(=O)NCCn1c(SCC(=O)NCC2CCCO2)nc2ccccc2c1=O (centres undefined) > 76.9 µM, COCCN1C(=O)c2ccccc2C(C(=O)NCc2ccco2)C1c1c[nH]c2ccccc12 (centres undefined) > 76.9 µM, COC(=O)C1ON2OC(C(=O)OC)C(C(=O)OC)C2C1CC(C)=O (centres undefined) > 76.9 µM, O=C1CCC(=O)N1OCCCCOc1ccccc1 > 76.9 µM, COc1ccc(-n2nc3c(c2NC(=O)c2c(-c4ccccc4Cl)noc2C)CS(=O)(=O)C3)cc1 > 76.9 µM, CCOC(=O)N1CCN(C(=O)c2ccc3c(=O)n(CCC4=CCCCC4)c(=O)[nH]c3c2)CC1 > 76.9 µM, COc1cc(Cl)c(C)cc1NC(=O)CSc1nnc(-c2ccco2)n1CC(C)C > 76.9 µM, CC1(C)C2CCC1(CS(=O)(=O)NCc1ccc(C(=O)O)cc1)C(=O)C2 (centres undefined) > 76.9 µM, CCOC(=O)N1CCC(NC(=O)CN2C(=O)COc3ccc(C(C)(C)C)cc32)CC1 > 76.9 µM, O=C(OCC(=O)N1CCc2ccccc21)c1ccc[n+]([O-])c1 > 76.9 µM, O=C(NC(Cc1c[nH]c2ccccc12)c1nnc2n1CCCCC2)c1cccs1 (centres undefined) > 76.9 µM, CNc1nc(N2CCc3ccccc32)ncc1F > 76.9 µM, O=C(CN1C(=O)c2ccccc2S1(=O)=O)NCc1ccccn1 > 76.9 µM, CCC(=O)N1CCc2cc(S(=O)(=O)N3CCc4ccccc4C3)ccc21 > 76.9 µM, O=C(CNCC1CCCO1)N1CCCc2ccccc21 (centres undefined) > 76.9 µM, COc1ccc(-c2c3c(=O)n(C)c(=O)n(C)c3cn2C2CCCCC2)cc1 > 76.9 µM, Cc1cccc(N(CC(=O)NCc2ccccc2)C(=O)Cn2nnc(-c3ccc(C)o3)n2)c1 > 76.9 µM, COc1ccc(O)c(C(=O)c2cnc3onc(C)c3c2)c1 > 76.9 µM, O=C(NCCc1ccncc1)Nc1ccc(Cl)cc1 > 76.9 µM, CCOC(=O)c1[nH]c2ccc(OC)cc2c1NC(=O)CN1CCSCC1 > 76.9 µM, O=C(CC(Cc1ccccc1)C(=O)O)NCCc1ccc2c(c1)OCO2 (centres undefined) > 76.9 µM, COc1cc2nc(C3CCC3)n(NC(=O)C3CCC(OC)CC3)c(=O)c2cc1OC (centres undefined) > 76.9 µM, CC(=O)Nc1ccccc1NC(=O)CN(C)S(=O)(=O)c1ccc(C)cc1 > 76.9 µM, Cc1cc(C(F)(F)F)nn1Cc1ccc(C(=O)NCc2ccco2)o1 > 76.9 µM, CCOC(=O)c1sc(NC(C)=O)c(C(=O)OCC)c1C > 76.9 µM, COc1cccc(OC)c1C(=O)Nc1ccccc1C(=O)N1CCOCC1 > 76.9 µM, COc1ccc2nc3sc(C(=O)N4CCN(C)CC4)cc3cc2c1, O=C(c1cc(-c2ccco2)on1)N1CCN(C(c2ccccc2)c2ccccc2)CC1 > 76.9 µM
